# According to PubChem BioAssay AID686979 (National Center for Advancing Translational Sciences (NCATS), 2013):
# Where “and” joins values, the source holds several entries; their conditions need not be identical. Equal entries are not always repeated. The whole screen tested about 420,000 compounds, of which about 50,000 (12%) were called active. Inconclusive means that the source gave no clear call. Such entries were picked first, then a sample of the others. Calls come from the whole dose curve; as a rule, active = well fitted inhibition curve with a large enough effect; inconclusive = small, poorly fitted or top-dose-only effect; inactive = flat fitted curve, though single readings scatter. Where the call is inconclusive, the potency comes from a doubtful curve fit.
# Assay: qHTS for Inhibitors of human tyrosyl-DNA phosphodiesterase 1 (TDP1): qHTS in cells in presence of CPT; note: nearly all actives have a fitted effect of over 55% in size
# Conditions: chicken DT40 Tdp1-/-;hTDP1 cells + 20 nM CPT, ATP luminescence, 48 h; activity change, negative = growth inhibition: at 46.2 µM (top of the series)
# How it was run: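 Cell growth measured by CellTiter-Glo luminescence after a minimum 48 h, 37 C compound exposure with 20 nM CPT in Tdp1-knockout DT40 cells stably expressing hTDP1, seeded 400/well; qHTS titration format.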
# % is set by controls: 0 for no effect and ±100 for the full control effect; potency is the fitted concentration of half-maximal effect; tags give direction and shape of the fitted curve.
Compound,Potency,"activity change, negative = growth inhibition"
COc1ccc(CNC(=O)C(=O)NCC2OCCN2S(=O)(=O)c2ccc(OC)cc2)cc1 (stereo not drawn),"inconclusive: 13 µM [inhibitor, partial curve]",–
COc1cc(C(=O)c2ccc3c(c2)OCO3)cc(OC)c1OC,active: 2.59 µM,–
O=S(=O)(Nc1cccc(-c2nc3cccnc3s2)c1)c1cccs1,–,inactive: -18.1%
C/C(Cn1nnc([N+](=O)[O-])n1)=N\NC(=O)c1ccc(Cl)c(Cl)c1,active: 18.4 µM,–
COc1ccc(CCNS(=O)(=O)c2ccc(N3CCCCS3(=O)=O)cc2)cc1,active: 23.1 µM,–
CSc1ccccc1C(=O)NCC1Cc2cc(F)cc(-c3cnccn3)c2O1 (stereo not drawn),active: 20.6 µM,–
CN(C)CCNC(=O)/C(=C/c1ccc(-c2cccc([N+](=O)[O-])c2)o1)NC(=O)c1ccccc1,"inconclusive: 32.6 µM [inhibitor, single point]",–
CCOC(=O)Cc1csc(NC(=O)Nc2ccccc2)n1,"inconclusive: 18.4 µM [inhibitor, single point]",–
COc1ccc([C@H]2CC(=O)C=C(c3cc(F)ccc3OC)C2)cc1,"inconclusive: 18.4 µM [inhibitor, single point]",–
O=C1OC[C@@H]2CCCN2C(=O)[C@@H](CC(=O)N(CCO)Cc2ccccc2)C/C=C\C[C@@H]1Cc1ccc(F)cc1,active: 23.1 µM,–
CC1CCC(NC(=O)Cn2ncc3c4ccccc4n(Cc4ccc(F)cc4)c3c2=O)CC1 (stereo not drawn),"inconclusive: 25.9 µM [inhibitor, single point]",–
COc1cccc(Oc2cn[nH]c2-c2ccc(OC)cc2O)c1,"inconclusive: 29.1 µM [inhibitor, single point]",–
O=C(CSc1nc2ccccc2[nH]1)NCc1ccc(F)cc1,–,inactive: -25.2%
CCOC(=O)c1sc2nc(C)nc(SCC(=O)N(CC)C3CCS(=O)(=O)C3)c2c1C (stereo not drawn),"inconclusive: 18.4 µM [inhibitor, single point]",–
O=c1[nH]c2ccc(NCc3ccc(-c4ccc(F)cc4)o3)cc2[nH]1,–,inactive: -22.7%
CCC(O)C1CCN(Cc2cn(-c3ccc(OC)cc3)nc2-c2cccc(F)c2)CC1 (stereo not drawn),"inconclusive: 18.4 µM [inhibitor, single point]",–
c1ccc(NCCC2OCC3(CO2)COC(CCNc2ccccc2)OC3)cc1 (stereo not drawn),"inconclusive: 29.1 µM [inhibitor, partial curve, poor fit]",–
O=C(O)c1ccccc1SC1CC(=O)N(c2cccc3ccccc23)C1=O (stereo not drawn),active: 1.84 µM,–
O=S(=O)(c1ccc(Cl)cc1)N1CCC2(CC1)CO2,"inconclusive: 18.4 µM [inhibitor, single point]",–
COc1ccc(CNC(=O)c2nn(C)c3c2CS(=O)(=O)c2ccccc2-3)cc1,"inconclusive: 29.1 µM [inhibitor, single point] and inconclusive: 23.1 µM [inhibitor, single point]",–
CC(C)(O)C#Cc1ccc(CNC[C@H]2O[C@@H](n3cnc4c(N)ncnc43)[C@H](O)[C@@H]2O)s1,"inconclusive: 29.1 µM [inhibitor, single point]",–
CCNc1nc(C#N)nc(N2CCCCC2)n1,"inconclusive: 17.8 µM [inhibitor, partial curve, poor fit]",–
CCN(CC)CCn1c(=N)n(CC(O)c2ccco2)c2ccccc21 (stereo not drawn),–,inactive: -13.3%

Compound,Potency,"activity change, negative = growth inhibition"
CC(=O)c1cccc(NC(=O)C2CCN(S(=O)(=O)c3ccccc3)CC2)c1,"inconclusive: 29.1 µM [inhibitor, single point]",–
CCOc1ccc(S(=O)(=O)N2CCN(C(=O)C3CSC4(C)CCC(=O)N34)CC2)cc1 (stereo not drawn),–,inactive: -14.6%
Cn1cccc1C(=O)N1CCC2(CCCN(c3cccc(-c4ccccc4)c3)C2)CC1,"inconclusive: 29.1 µM [inhibitor, single point]",–
CCN1C(=O)[C@H]2[C@@H](c3ccc(-c4ccccc4)cc3)N[C@@](CC(C)C)(C(=O)OC)[C@H]2C1=O,active: 25.9 µM,–
CCC1CCCCN1S(=O)(=O)c1cc2c(cc1C)NC(=O)CO2 (stereo not drawn),"inconclusive: 20.6 µM [inhibitor, partial curve]",–
Cc1nn(-c2ccccc2)c(Cl)c1/C=C1\C(=O)N(C)C(=S)N1C,"inconclusive: 18.4 µM [inhibitor, single point]",–
O=C(C(=Cc1ccc(F)cc1)c1ccccc1)c1ccc(O)cc1,–,inactive: 3.49%
Cc1ccc(-c2cc(-c3ccccc3[N+](=O)[O-])[nH]n2)c(O)c1,–,inconclusive: -30.6% [inhibitor]
Cc1cc(C)c(NC(=O)CSc2nc3[nH]ncc3c(=O)[nH]2)c(C)c1,–,inactive: -1.13%
O=C(Nc1ccc(-c2n[nH]c(=S)o2)cc1)c1ccccc1Br,–,inactive: 1.14%
CCOc1cc(CNCCSc2nnnn2C)cc(Br)c1OCc1ccccc1F,active: 16.4 µM,–
COc1ccccc1OCC(=O)NCCS(=O)(=O)N1CCN(c2ccc(F)cc2)CC1,"inconclusive: 7.31 µM [inhibitor, partial curve]",–
CCOc1ccc2c(c1)[N+](C)(C)C(C)(C)C=C2C,active: 5.8 µM,–
CC1=C(C(=O)O)N2C(=O)[C@@H](NC(=O)[C@H](N)c3ccccc3)[C@H]2SC1,"inconclusive: 29.9 µM [inhibitor, single point]",–
COc1ccc(-c2noc(CSc3nnc(Cc4ccccc4)n3-c3cccc(C)c3)n2)cc1,"inconclusive: 23.1 µM [inhibitor, single point]",–
CCC(C)NC(=O)Cc1ccc(-c2ccccc2)cc1 (stereo not drawn),"inconclusive: 29.1 µM [inhibitor, single point]",–
CCNS(=O)(=O)c1ccc(OCCNS(C)(=O)=O)cc1,–,inactive: -18.7%
COc1ccc(C(=O)/C=C2/C(=O)Nc3ccccc32)cc1OC,active: 16.4 µM,–
CC(=O)Nc1cccc(C(=O)OCC(=O)c2ccc(S(=O)(=O)N3CCCCC3)cc2)c1,"inconclusive: 29.1 µM [inhibitor, single point]",–
CCCc1nn2cc(-c3ccc(C)c(C)c3)nc2s1,"inconclusive: 18.4 µM [inhibitor, single point]",–
COc1ccc(Nc2nc(NCc3ccco3)nc(N3CCOCC3)n2)cc1,"inconclusive: 16.4 µM [inhibitor, single point]",–
CCc1nnc(SCC(=O)Nc2cccc(C(F)(F)F)c2)c2cc3oc(C)cc3n12,"inconclusive: 25.9 µM [inhibitor, single point]",–
O=C1CCCCN1CC(=O)N1CCCC(Nc2ccc(F)cc2)C1 (stereo not drawn),–,inactive: 7.57%

Compound,Potency,"activity change, negative = growth inhibition"
CCC(=O)N1CCN(c2ccccc2NC(=S)NC(=O)c2ccco2)CC1,"inconclusive: 29.1 µM [inhibitor, single point]",–
O=C1CC2(CCCC2)CC(=O)N1CCCCNCC1COc2ccccc2O1 (stereo not drawn),–,inactive: -22.2%
COc1ccc(CCNC(=O)/C(C#N)=C2\N=C(NC(=O)c3cccs3)c3ccccc32)cc1,active: 10.3 µM,–
CC(=O)N1CCN(CC(=O)Nc2ccc(SC(F)F)cc2)CC1,–,inactive: -15.2%
CCCOc1ccc(NCC(=O)Nc2ccc(C)cc2C)cc1,"inconclusive: 29.1 µM [inhibitor, single point]",–
COc1cccc(S(=O)(=O)NCc2ccc(C(=O)N3CCN(Cc4ccccc4)CC3)cc2)c1,"inconclusive: 23.1 µM [inhibitor, single point]",–
CCCOc1ccc(F)cc1-c1cc(C(=O)NCc2ccco2)[nH]n1,"inconclusive: 23.1 µM [inhibitor, single point]",–
Cc1ccc(OCC(=O)c2cc(C)n(C)c2C)c([N+](=O)[O-])n1,–,inactive: -9.47%
Cc1ccc(C(CNC(=O)Nc2ccc(Cl)cc2)N2CCN(C)CC2)cc1 (stereo not drawn),"inconclusive: 18.4 µM [inhibitor, single point]",–
Cc1ccccc1Cn1c2ccccc2c2cnn(CC(=O)N3CCN(c4ccccc4)CC3)c(=O)c21,"inconclusive: 18.4 µM [inhibitor, single point]",–
O=C(c1ccccc1)c1nn(-c2ccccc2)c(=O)cc1-c1ccccc1,"inconclusive: 29.1 µM [inhibitor, single point]",–
Cc1oc(-c2ccccc2Cl)nc1CS(=O)(=O)CC(=O)NC(C)c1ccccc1 (stereo not drawn),"inconclusive: 10.3 µM [inhibitor, partial curve] and inconclusive: 29.1 µM [inhibitor, single point]",–
Cc1ccccc1S(=O)(=O)Cc1ccc(C(=O)NC2CCCCC2C)o1 (stereo not drawn),"inconclusive: 20.6 µM [inhibitor, single point]",–
CCOC(=O)c1c(C)[nH]c(C)c1C(=O)CSc1nnc(-c2ccco2)n1Cc1ccccc1,"inconclusive: 18.4 µM [inhibitor, partial curve]",–
CCc1ccc(Nc2n[n+](-c3ccccc3)c(-c3ccc(OC)c(Br)c3)s2)cc1,active: 16.4 µM,–
COc1cc(C(=O)N2CCN(C(=O)c3ccco3)CC2)c([N+](=O)[O-])cc1OC,–,inactive: 5.31%
COC(=O)c1sc(S(=O)(=O)Nc2ccc(C)c(C)c2)c(C(=O)OC)c1C,–,inconclusive: -30.7% [inhibitor]
Cc1cc(C)nc(N/C(=N\S(=O)(=O)Cc2ccccc2)Nc2cccc(Cl)c2C)n1,"inconclusive: 29.1 µM [inhibitor, single point]",–
Cc1ccc(/C=N/n2c(-c3cccnc3)n[nH]c2=S)s1,–,inactive: -0.101%
CCOC(=O)C1=C(C)N(C)C(C)=C(C(=O)OCC)C1c1ccc(Cl)cc1,"inconclusive: 29.1 µM [inhibitor, single point]",–
CCOc1ccccc1/C=C/C(=O)NCC(=O)N1CCC(N(C)C2CCCCC2C)CC1 (stereo not drawn),"inconclusive: 16.4 µM [inhibitor, partial curve]",–
O=c1c2cccnc2[nH]c(=S)n1Cc1ccccc1,–,inactive: 3.61%
